Assay results from the supplement of paper PMC10369915.
The list shows a part of the results. Rule as the data show it: active = 3.2 or more and inactive = the rest. Only a few entries rise above the background.

Experiments:
Experiment in all cases: enrichment score (SH2-bound / input frequency) (ratio); bacterial display of known human phosphotyrosine sites (pTyr-Var adds point mutants) read by sequencing; higher = stronger binding; tyrosines were phosphorylated by kinases first
Details in all cases: peptide library: pTyr-Var
SHP2 C-SH2 domain E139D = target: SHP2 C-SH2 domain E139D
[1] = target: SHP2 C-SH2 domain wild-type
SHP2 N-SH2 domain L43F = target: SHP2 N-SH2 domain L43F
SHP2 N-SH2 domain T42A = target: SHP2 N-SH2 domain T42A
SHP2 N-SH2 domain T52S = target: SHP2 N-SH2 domain T52S
[2] = target: SHP2 N-SH2 domain wild-type

Measured: enrichment score
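Also: displayed peptides selected on beads carrying the immobilized SH2 domain, with library peptides lacking any tyrosine serving as negative controls.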

YKPGFYNLKEK [LAMA1_Y490_C485Y]
inactive: SHP2 C-SH2 domain E139D 1.21 | [1] 1.35 | SHP2 N-SH2 domain L43F 1.48 | SHP2 N-SH2 domain T42A 1.01 | SHP2 N-SH2 domain T52S 1.18 | [2] 1.09

LKYAIYFEVRE [LAMA2_Y1258_A1261V]
inactive: SHP2 C-SH2 domain E139D 2.29 | [1] 2.06 | SHP2 N-SH2 domain L43F 2.46 | SHP2 N-SH2 domain T42A 2.13 | SHP2 N-SH2 domain T52S 1.56 | [2] 2.12

LKFAIYFEVRE [LAMA2_Y1258_A1261V_YF]
inactive: SHP2 C-SH2 domain E139D 0.444 | [1] 0.876 | SHP2 N-SH2 domain L43F 0.536 | SHP2 N-SH2 domain T42A 0.605 | SHP2 N-SH2 domain T52S 0.492 | [2] 0.793

RLPINYTTRRI [LAMA2_Y2894_G2889R]
inactive: SHP2 C-SH2 domain E139D 0.176 | [1] 0.216 | SHP2 N-SH2 domain L43F 0.16 | SHP2 N-SH2 domain T42A 0.202 | SHP2 N-SH2 domain T52S 0.206 | [2] 0.285

RVILRYVNPGT [LAMA3_Y791]
inactive: SHP2 C-SH2 domain E139D 1.41 | [1] 0.966 | SHP2 N-SH2 domain L43F 1.11 | SHP2 N-SH2 domain T42A 1.26 | SHP2 N-SH2 domain T52S 1.28 | [2] 1.69

RSSPTYRDCLQ [LARGE2_Y682]
inactive: SHP2 C-SH2 domain E139D 0.862 | [1] 0.674 | SHP2 N-SH2 domain L43F 0.658 | SHP2 N-SH2 domain T42A 0.582 | SHP2 N-SH2 domain T52S 0.653 | [2] 0.652

CSSPTYRDCLQ [LARGE2_Y682_R677C]
inactive: SHP2 C-SH2 domain E139D 1.87 | [1] 1.7 | SHP2 N-SH2 domain L43F 1.76 | SHP2 N-SH2 domain T42A 1.54 | SHP2 N-SH2 domain T52S 1.72 | [2] 1.29

LPKDLYLISQM [LARP4_Y141_S137P]
inactive: SHP2 C-SH2 domain E139D 1.6 | [1] 1.79 | SHP2 N-SH2 domain L43F 2.03 | SHP2 N-SH2 domain T42A 1.71 | SHP2 N-SH2 domain T52S 1.72 | [2] 1.02

YIATQYSLRPR [LBR_Y166]
inactive: SHP2 C-SH2 domain E139D 0.232 | [1] 0.284 | SHP2 N-SH2 domain L43F 0.394 | SHP2 N-SH2 domain T42A 0.247 | SHP2 N-SH2 domain T52S 0.265 | [2] 0.282

YIATQYSLCPR [LBR_Y166_R169C]
inactive: SHP2 C-SH2 domain E139D 0.523 | [1] 0.662 | SHP2 N-SH2 domain L43F 0.676 | SHP2 N-SH2 domain T42A 0.643 | SHP2 N-SH2 domain T52S 0.545 | [2] 0.754

FKNGDYNEVMK [LCT_Y1638]
inactive: SHP2 C-SH2 domain E139D 0.647 | [1] 0.748 | SHP2 N-SH2 domain L43F 0.764 | SHP2 N-SH2 domain T42A 0.794 | SHP2 N-SH2 domain T52S 0.675 | [2] 0.786

LKVKAYRFSIS [LCT_Y974]
inactive: SHP2 C-SH2 domain E139D 0.848 | [1] 0.827 | SHP2 N-SH2 domain L43F 0.606 | SHP2 N-SH2 domain T42A 0.698 | SHP2 N-SH2 domain T52S 0.623 | [2] 0.679

LKLKAYRFSIS [LCT_Y974_V971L]
inactive: SHP2 C-SH2 domain E139D 0.868 | [1] 0.587 | SHP2 N-SH2 domain L43F 0.738 | SHP2 N-SH2 domain T42A 0.669 | SHP2 N-SH2 domain T52S 0.936 | [2] 0.959

FQEKSYIKGTS [LCTL_Y331_L326F]
inactive: SHP2 C-SH2 domain E139D 0.862 | [1] 1.03 | SHP2 N-SH2 domain L43F 0.906 | SHP2 N-SH2 domain T42A 0.742 | SHP2 N-SH2 domain T52S 0.609 | [2] 1.02

NPIGLYSAETL [LDB3_Y202]
inactive: SHP2 C-SH2 domain E139D 0.803 | [1] 0.915 | SHP2 N-SH2 domain L43F 0.811 | SHP2 N-SH2 domain T42A 0.694 | SHP2 N-SH2 domain T52S 0.746 | [2] 0.814

PQIVKYRPDCI [LDHB_Y128_S129R]
inactive: SHP2 C-SH2 domain E139D 1.28 | [1] 1.7 | SHP2 N-SH2 domain L43F 2.05 | SHP2 N-SH2 domain T42A 1.59 | SHP2 N-SH2 domain T52S 2.31 | [2] 1.69

SARVRYLMAEK [LDHB_Y173_F171V]
inactive: SHP2 C-SH2 domain E139D 1.82 | [1] 1.07 | SHP2 N-SH2 domain L43F 1.39 | SHP2 N-SH2 domain T42A 1.23 | SHP2 N-SH2 domain T52S 1.38 | [2] 1.28

SARFRYLLAEK [LDHB_Y173_M175L]
inactive: SHP2 C-SH2 domain E139D 0.511 | [1] 0.574 | SHP2 N-SH2 domain L43F 0.487 | SHP2 N-SH2 domain T42A 0.524 | SHP2 N-SH2 domain T52S 0.772 | [2] 0.499
